From PubChem BioAssay AID686979 (National Center for Advancing Translational Sciences (NCATS), 2013)
Among all 420,000 compounds or so, about 50,000 (12%) were called active. The inconclusive results got no clear call from the source; some entries with a clear call stand among them for comparison. The call rests on the fitted dose curve; in most records, active means well fitted inhibition curve with a large enough effect; inconclusive means small, poorly fitted or top-dose-only effect; inactive means flat fitted curve, though single readings scatter. Potencies of inconclusive entries are left out as doubtful fits.

Assay: qHTS for Inhibitors of human tyrosyl-DNA phosphodiesterase 1 (TDP1): qHTS in cells in presence of CPT; further: nearly all actives have a fitted effect of over 55% in size
Conditions: chicken DT40 Tdp1-/-;hTDP1 cells + 20 nM CPT, ATP luminescence, 48 h; series mostly up to 46.2 µM
Summary of the method: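 Chicken DT40 Tdp1-/- cells complemented with human TDP1, 400 cells/well, exposed to compounds plus 20 nM camptothecin for at least 48 h at 37 C; viability read as ATP content by CellTiter-Glo luminescence.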
Potency means the concentration at half of the fitted maximal effect; tags describe the fitted curve by direction and shape.

| SMILES | Potency |
| --- | --- |
| O=C(NC1CCCCC1)C(C1CC1)n1c(=O)c(-c2ccco2)nc2ccccc21 (stereo not drawn) | inconclusive [inhibitor, single point] |
| Cc1nnc(NC(=O)Nc2ccc(Cl)c(Cl)c2)s1 | active: 23.1 µM |
| COc1ccc(N2CCN(C(=O)C3Cc4ccccc4CN3C(=O)c3ccccc3)CC2)cc1 (stereo not drawn) | inactive |
| C=CCn1c(=O)c2ccccc2n2c(SCc3nc4ccccc4s3)nnc12 | inconclusive [inhibitor, single point] |
| Clc1ccc(-c2cnn3c(-c4ccncc4)ccnc23)cc1 | inconclusive [inhibitor, single point] |
| Nc1ccccc1-n1c(=O)n(Cc2ccccc2F)c(=O)c2[nH]cnc21 | inconclusive [inhibitor, single point] |
| CC(C)(CNC(=O)c1sc2cc(Cl)ccc2c1Cl)N1CCOCC1 | active: 16.4 µM |
| C(=N\n1c2ccccc2c2ccccc21)/c1ccccc1 | inconclusive [inhibitor, single point] |
| CCOC(=O)C1=CCN(S(=O)(=O)c2ccc(F)cc2)C1c1ccccc1 (stereo not drawn) | inconclusive [inhibitor, partial curve] |
| CCOc1ccc(CNC(=O)CCCn2nc(C)c3sc4ccccc4c3c2=O)cc1 | inconclusive [inhibitor, single point] |
| NC(c1csc(Nc2ccc(C(=O)NCCO)cc2)n1)C1CCCCC1 (stereo not drawn) | active: 10.3 µM |
| CCc1nc(CN2CCN(c3ccc(C(F)(F)F)cn3)CC2)c(C)[nH]1 | active: 11.6 µM |
| CCC(C)Nc1sc(S(=O)(=O)CC)nc1S(=O)(=O)c1ccc(C)cc1 (stereo not drawn) | inactive |
| CCCCCCCCN1C(=O)[C@H](CC(=O)N2CCOCC2)C[C@@]2(C(=O)OC)CC(C)(C)CC=C12 | active: 20.6 µM |
| Cn1c(=O)c2c(nc(CCC3CCCC3)n2C)n(C)c1=O | inconclusive [inhibitor, single point] |
| Cc1ccc(N2C(=O)c3ccccc3C2Nc2ccccc2)nc1 (stereo not drawn) | inconclusive [inhibitor, single point] |
| CCCN(CCC)c1nc2ccccc2nc1C(C#N)C(=O)OC(C)COC (stereo not drawn) | active: 23.1 µM |
| CC1Sc2ccc(S(=O)(=O)N3CCC(C(=O)NCC(C)c4ccccc4)CC3)cc2NC1=O (stereo not drawn) | inconclusive [inhibitor, single point] |
| COc1ccc(S(=O)(=O)N2CCOC23CCN(C(=O)c2ccc(Cl)cc2Cl)CC3)cc1 | inconclusive [inhibitor, single point] |
| CCCOc1ccc(-c2nn(-c3ccccc3)cc2C2NC(=O)NC(C)=C2C(=O)OC)cc1 (stereo not drawn) | inconclusive [inhibitor, single point] |
| COC(=O)CSc1nnc(CNC(=O)c2ccccc2OC)n1-c1ccc(OC)cc1 | inactive |
| O=C(N/N=C/c1ccc[nH]1)c1ccccc1OCc1ccc(F)cc1 | inactive |
| CCOC(=O)c1cc(C#N)c(SC)nc1C | inactive |
| O=C(CCN1C(=O)/C(=C\c2ccccc2)SC1=S)NNC(=O)c1ccccc1O | active: 20.6 µM |
| CCOC(=O)N1CCC(N2C(=O)c3ccccc3C2Nc2cc(OC)c(OC)c(OC)c2)CC1 (stereo not drawn) | inconclusive [inhibitor, single point] |

| SMILES | Potency |
| --- | --- |
| Cc1ccc(C)c(NC(=O)COC(=O)c2c(C)nn(-c3ccccc3)c2C)c1 | inconclusive [inhibitor, single point] |
| CC(=O)Nc1ccc(NC(=O)c2c(C)c(-c3ccccc3)nc3ccccc23)cc1 | inactive |
| COc1cc(C(=O)OCC(=O)N2CCN(S(=O)(=O)c3ccc(C)cc3C)CC2)c([N+](=O)[O-])cc1OC | inconclusive [inhibitor, single point] |
| COc1cc(OC)cc(C(=O)Nc2ccn(C)n2)c1 | inactive |
| O=C(C1=C[C@@H](c2ccc(Br)cc2)C[C@@H](OCc2ccc(CO)cc2)O1)N1CCN(Cc2ccccc2)CC1 | inconclusive [inhibitor, single point] |
| Cc1cc2c(cc1C)[n+](C)cn2CC(O)COCC1CC=CCC1 (stereo not drawn) | active: 8.2 µM |
| COc1ccc(C)cc1NC(=O)CNC(c1ccccc1)c1ccccc1 | inconclusive [inhibitor, single point] |
| COc1ccccc1N1CCN(c2ccnc3cc(Cl)ccc23)CC1 | active: 2.59 µM |
| Cc1cccc(NC(=O)CSCC(=O)NCc2ccco2)c1 | inactive |
| CCCN1C(=O)c2ccc(C(=O)Nc3ccccc3C(=O)O)cc2C1=O | inactive |
| CCN(CC(=O)Nc1ccccc1C(F)(F)F)CC(=O)c1[nH]c(C)c(C(C)=O)c1C | active: 23.1 µM |
| Cc1c(O)nc(SC2CC(=O)N(c3cc(Cl)cc(Cl)c3)C2=O)[nH]c1=O (stereo not drawn) | inactive |
| CC(C)(C)c1ccccc1OCC(=O)Nc1ccccc1C(=O)NCc1cccnc1 | inconclusive [inhibitor, single point] |
| CC(C)(C)C(=O)Cn1c(NCCO)nc2ccccc21 | inactive |
| CCOC(=O)c1c(NC(=O)CSc2nnc(-c3cccc(C)c3)n2CC)sc(C(C)=O)c1C | active: 23.1 µM |
| CCOC(=O)[C@@H]1[C@H]2COc3ccc(Br)cc3[C@@H]2N2C(=O)N(c3ccc(Br)cc3)C(=O)[C@@]12C | inconclusive [inhibitor, single point] |
| Cc1cccc(C)c1NC(=O)[C@@]1(CC(=O)O)CC(/C=C/c2ccccc2)=NO1 | inactive |
| O=C(NCc1ccc(F)cc1)c1cc(C2CCCCN2C(=O)CCCc2ccccc2)on1 (stereo not drawn) | inconclusive [inhibitor, single point] |
| CN(C)S(=O)(=O)c1ccc(Nc2nc(C3CC3)nc3c2nnn3Cc2ccccc2Cl)cc1 | active: 9.2 µM |
| CN(C)CC1CCCCC1OC(=O)/C=C/c1ccccc1 (stereo not drawn) | inactive |
| CCOCCCNC(=O)c1cc2c(-c3ccc(Cl)cc3)nn(C)c2s1 | inconclusive [inhibitor, single point] |
| Cc1ccc(S(=O)(=O)N2CCOCC2)cc1NC(=O)COC(=O)c1ccc(OCc2c(C)noc2C)cc1 | inconclusive [inhibitor, partial curve] |
| CN(C)S(=O)(=O)c1ccc(C(=O)Nc2cc(S(=O)(=O)Nc3ccccc3Cl)ccc2N2CCCCC2)cc1 | active: 8.2 µM |
| NC(=S)n1[nH]c(-c2ccccc2)c(N=Nc2ccccc2C(=O)N2CCOCC2)c1=O | inconclusive [inhibitor, single point] |
| CN(CC(=O)Nc1ccc(Cl)cc1)C(=O)c1ccc(NS(=O)(=O)c2ccc3[nH]c(=O)[nH]c3c2)cc1 | inactive |

| SMILES | Potency |
| --- | --- |
| CCOC(=O)C1CCN(C(=O)CCc2c(C)nc3c(-c4ccc(F)cc4)c(C)nn3c2C)CC1 | active: 8.2 µM |
| CCCCCCn1c(CN2CCCCC2C)nc2c1c(=O)n(C)c(=O)n2C (stereo not drawn) | inconclusive [inhibitor, single point] |
| CCCc1[nH]n(-c2ccc(F)cc2)c(=O)c1C=Nc1cccc(F)c1 | active: 6.51 µM |
| COc1ccc([C@H]2CC(=O)C=C(/C=C/c3ccccc3)C2)cc1OC | active: 18.4 µM |
| CCCCOc1ccc(Cn2c(=O)oc3ccc(C)cc32)cc1 | inconclusive [inhibitor, single point] |
| Cc1ccccc1CNC(=O)CCNS(=O)(=O)c1ccc(OC(F)(F)F)cc1 | inactive |
| CCc1nn(CC(=O)N(C)C2CCCCC2)c(=O)c2cc3cc(C)ccc3n12 | inconclusive [inhibitor, single point] |
| COc1ccc(OC)c(NC(=O)CSc2cn(CC(=O)N3CCCCCC3)c3ccccc23)c1 | inconclusive [inhibitor, single point] |
| C/C(=N\NC(=O)COc1ccccc1)c1cccs1 | inactive |
| Nc1nc(SCC(=O)c2cccs2)n[nH]1 | inactive |
| CCN(CC)C(=O)[C@H]1C[C@H](CC(=O)NCCC2=CCCCC2)C(=O)N2CCc3c([nH]c4cc(CCC(=O)N(C)C)ccc34)[C@]12C | inconclusive [inhibitor, single point] |
| CCCCCCn1c(=O)n2n(c1=O)[C@@H]1CN(S(=O)(=O)c3ccc(C)cc3)C[C@]1(O)[C@@H](OC(=O)NC1CCCC1)C2 | inconclusive [inhibitor, single point] |
| Cc1cccc(-c2nnn3c2nc(NCCc2ccc(S(N)(=O)=O)cc2)c2ccccc23)c1 | active: 14.6 µM |
| CCOC(=O)Cc1csc(SCC(=O)c2c(N)n(CC(C)C)c(=O)n(C)c2=O)n1 | active: 9.2 µM |
| COC(=O)c1cc(OC)c(OC)cc1NCC(=O)Nc1ccc(OC)c(OC)c1 | active: 20.6 µM |
| CN1CCN(c2ccncc2S(=O)(=O)N2CCCCC2)CC1 | inactive |
| Cc1cccc(C(=O)Nc2ccccc2C(=O)OCC(=O)Nc2ccc(C#N)cc2)c1 | inactive |
| COCCN(C(=O)c1ccco1)c1nc(-c2ccc(OC)cc2)cs1 | active: 25.9 µM |
| O=C(CSc1ncc(C(F)(F)F)cc1Cl)N1CCN(S(=O)(=O)c2ccc(Cl)cc2)CC1 | inconclusive [inhibitor, single point] |
| Cc1ccc2c(c1)C=CC(C#N)N2C(=O)c1ccccc1 (stereo not drawn) | active: 1.64 µM |
| O=C(Nc1cccc(NC(=O)c2ccc(Cl)cc2Cl)c1)c1cccnc1 | inconclusive [inhibitor, partial curve] |
| Cc1ccc(NC(=O)COC(=O)CCOc2ccccc2C)cc1 | inactive |
| CCS(=O)(=O)c1nc(S(=O)(=O)c2ccc(Cl)cc2)c(N2CCCC2)s1 | inconclusive [inhibitor, single point] |
